{"source": "the supplement of paper PMC9446081", "note": "In all, about 39,000 compounds went through this assay and about 220 (0.56%) showed activity. This is one part of the list.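 Also: static incubation at 37 °C against the wild-type strain, values averaged over two biological replicates.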"}
{"tested_on": "Escherichia coli K-12 BW25113", "test": "relative growth (OD600 normalised to plate interquartile mean) (fraction); higher = less growth inhibition, active = 0.2 or less", "conditions": "50 µM; LB; incubation time: overnight (16-24 h)"}
{"compound": "Cc1noc(C)c1NC(=O)Nc1ccc2c(c1)C(=O)N([C@@H](C)CO)C[C@H](C)[C@@H](CN(C)C(=O)Nc1ccc(C(F)(F)F)cc1)OCCCC[C@@H](C)O2", "relative growth": "inactive: 1.02"}
{"compound": "COc1ccc(NC(=O)Nc2ccc3c(c2)C(=O)N([C@H](C)CO)C[C@H](C)[C@H](CN(C)S(=O)(=O)c2ccc(F)cc2)OCCCC[C@@H](C)O3)cc1", "relative growth": "inactive: 1.01"}
{"compound": "C[C@@H]1CN([C@@H](C)CO)C(=O)Cc2cc(NS(=O)(=O)c3cn(C)cn3)ccc2O[C@@H]1CN(C)S(=O)(=O)c1cccs1", "relative growth": "inactive: 0.895"}
{"compound": "CC(C)NC(=O)N(C)C[C@H]1Oc2ccc(NC(=O)c3ccncc3)cc2CC(=O)N([C@@H](C)CO)C[C@@H]1C", "relative growth": "inactive: 0.992"}
{"compound": "C[C@@H]1CN([C@@H](C)CO)C(=O)c2cc(NC(=O)C3CCCCC3)ccc2O[C@@H](C)CCCCO[C@H]1CN(C)C(=O)C1CCCCC1", "relative growth": "inactive: 1.02"}
{"compound": "O=C(C[C@@H]1CC[C@@H]2[C@H](COC[C@H](O)CN2C(=O)c2ccc3c(c2)OCO3)O1)NC1Cc2ccccc2C1", "relative growth": "inactive: 1.03"}
{"compound": "O=c1nc[nH]c2nc[nH]c12", "relative growth": "inactive: 0.991"}
{"compound": "CN1CCNC1=S", "relative growth": "inactive: 1.01"}
{"compound": "C[C@@H]1CN([C@H](C)CO)C(=O)c2cc(N(C)C)ccc2O[C@@H](C)CCCCO[C@H]1CN(C)S(=O)(=O)c1cn(C)cn1", "relative growth": "inactive: 0.992"}
{"compound": "C[C@H]1CN([C@@H](C)CO)C(=O)Cc2cc(NC(=O)Cn3cnnn3)ccc2O[C@H]1CN(C)Cc1ccc(Cl)c(Cl)c1", "relative growth": "inactive: 1.02"}
{"compound": "C[C@@H]1CCCCO[C@H](CN(C)Cc2ccc(C(F)(F)F)cc2)[C@H](C)CN([C@@H](C)CO)C(=O)c2cc(NC(=O)Nc3ccc(C(F)(F)F)cc3)ccc2O1", "relative growth": "inactive: 1.02"}
{"compound": "O=C(C[C@H]1CC[C@@H](NC(=O)c2cccnc2)[C@@H](CO)O1)NCCN1CCCCC1", "relative growth": "inactive: 0.963"}
{"compound": "COc1ccccc1NC(=O)N(C)C[C@@H]1Oc2ncc(C#CCN(C)C)cc2C(=O)N([C@H](C)CO)C[C@H]1C", "relative growth": "inactive: 0.998"}
{"compound": "CC(C)CN(C(=O)COC(=O)c1c2c(nc3ccccc13)CCC2)c1c(N)n(Cc2ccccc2)c(=O)[nH]c1=O", "relative growth": "inactive: 1.02"}
{"compound": "CCc1nc2ccc(C(=O)Nc3cccc(OCC(=O)N(C)C)c3)cn2c1N(C)Cc1cc2ccccc2s1", "relative growth": "inactive: 1.03"}
{"compound": "C=C(C)[C@@H]1CC[C@]2(C(=O)O)CC[C@]3(C)[C@H](CC[C@@H]4[C@@]5(C)CC[C@H](OC(=O)CC(C)(C)C(=O)O)C(C)(C)[C@@H]5CC[C@]43C)[C@@H]12", "relative growth": "inactive: 0.85"}
{"compound": "C[C@@H]1CCCCO[C@@H](CN(C)C(=O)NC2CCCCC2)[C@@H](C)CN([C@H](C)CO)C(=O)c2cc(NC(=O)Nc3ccccc3)ccc2O1", "relative growth": "inactive: 1.01"}
{"compound": "COc1ccc(CN(C)C[C@@H]2OCCCC[C@@H](C)Oc3ccc(NC(=O)NC4CCCCC4)cc3C(=O)N([C@@H](C)CO)C[C@H]2C)cc1", "relative growth": "inactive: 0.991"}
{"compound": "O=C1O[C@@H](c2ccccc2)[C@@H](c2ccccc2)N2[C@@H](c3ccccc3OCCO)[C@]3(C(=O)Nc4ccc(C#CC5=CCCCC5)cc43)[C@@H](C(=O)O)[C@H]12", "relative growth": "inactive: 0.92"}
{"compound": "C[C@@H]1CN([C@H](C)CO)C(=O)c2c(c3ccccc3n2C)-c2ccccc2CO[C@H]1CN(C)C(=O)CCC(F)(F)F", "relative growth": "inactive: 0.982"}
{"compound": "C[C@H](CO)N1C[C@H](C)[C@H](CN(C)Cc2ccc(Oc3ccccc3)cc2)OCc2ccccc2-c2c(n(C)c3ccccc23)C1=O", "relative growth": "inactive: 1"}
{"compound": "C[C@H](CO)N1C[C@H](C)[C@@H](CN(C)S(C)(=O)=O)Oc2c(NC(=O)Nc3ccccc3)cccc2C1=O", "relative growth": "inactive: 0.953"}
{"compound": "C[C@@H]1CN([C@H](C)CO)C(=O)Cc2cc(NC(=O)Cc3cn(C)c4ccccc34)ccc2O[C@@H]1CN(C)C(=O)Nc1cccc2ccccc12", "relative growth": "inactive: 1.02"}
{"compound": "Cc1ccc2c(c1)[C@@]1(CC(=O)N(Cc3ccccc3)C1=O)C(=O)N2CCCn1c(=O)c2c(ncn2C)n(C)c1=O", "relative growth": "inactive: 1.05"}
{"compound": "C[C@@H]1CCCCO[C@@H](CN(C)Cc2ccc(C(=O)O)cc2)[C@H](C)CN([C@@H](C)CO)C(=O)c2cc(NC(=O)C3CCCCC3)ccc2O1", "relative growth": "inactive: 1.02"}
{"compound": "COc1cccc(S(=O)(=O)N(C)C[C@H]2Oc3cc(C4=CCCC4)ccc3S(=O)(=O)N([C@@H](C)CO)C[C@@H]2C)c1", "relative growth": "inactive: 1.02"}
{"compound": "C[C@@H]1CN([C@@H](C)CO)C(=O)Cc2cc(NC(=O)Nc3cccc4ccccc34)ccc2O[C@H]1CN(C)C(=O)Nc1ccccc1", "relative growth": "inactive: 0.989"}
{"compound": "C[C@H]1CN([C@@H](C)CO)C(=O)Cc2cc(NC(=O)Nc3ccc(C(F)(F)F)cc3)ccc2O[C@H]1CN(C)Cc1ccc(Cl)c(Cl)c1", "relative growth": "inactive: 0.993"}
{"compound": "C[C@H]1CN([C@@H](C)CO)S(=O)(=O)c2ccc(Br)cc2O[C@H]1CN(C)C(=O)c1cccnc1", "relative growth": "inactive: 1.01"}
{"compound": "C[C@@H]1CN([C@@H](C)CO)C(=O)c2cccc(NC(=O)Nc3ccccc3)c2O[C@@H]1CN(C)Cc1ccc(-c2ccccc2)cc1", "relative growth": "inactive: 1.02"}
{"compound": "C[C@@H]1CCCCO[C@H](CN(C)C(=O)c2ccncc2)[C@H](C)CN([C@@H](C)CO)C(=O)c2cc(NS(C)(=O)=O)ccc2O1", "relative growth": "inactive: 0.996"}
{"compound": "Cc1ccc(S(=O)(=O)Nc2ccc3c(c2)C(=O)N([C@@H](C)CO)C[C@H](C)[C@@H](CN(C)C(=O)c2ccccc2)OCCCC[C@@H](C)O3)cc1", "relative growth": "inactive: 0.992"}
{"compound": "C[C@@H]1CN([C@H](C)CO)C(=O)Cc2cc(NC(=O)Nc3ccc(C(F)(F)F)cc3)ccc2O[C@@H]1CN(C)Cc1ccc2c(c1)OCO2", "relative growth": "inactive: 1.06"}
{"compound": "COc1ccc(S(=O)(=O)N(C)C[C@@H]2Oc3ccc(NS(=O)(=O)c4ccccc4)cc3C(=O)N([C@H](C)CO)C[C@@H]2C)cc1", "relative growth": "inactive: 1.02"}
{"compound": "C[C@H]1CC=CC[C@H](c2cccc(Cl)c2)NC(=O)[C@@H](Cc2ccccc2)N(C)C(=O)c2ccccc2O1", "relative growth": "inactive: 0.983"}
{"compound": "Cc1ccc(S(=O)(=O)N(C)C[C@H]2Oc3cc(C#Cc4ccccc4)ccc3S(=O)(=O)N([C@@H](C)CO)C[C@H]2C)cc1", "relative growth": "inactive: 1.04"}
